Here are results for one protein from PMC9357639 (Cancer Science, 2022).

The data set deals with the molecule itself. In words: SEC. For orientation: In gel filtration, larger molecules generally elute earlier.

B1: STAT3 T622A, bacterially purified, phosphorylated at Y705 by His-JAK2 in vitro (with or without earl (natural protein)
chain: not shown
modifications: phosphotyrosine at 705 (JAK2-mediated, in vitro kinase assay)
Turning to B1, the binding result is recorded as “binds”.
